# According to PubChem BioAssay AID720708 (National Center for Advancing Translational Sciences (NCATS), 2013):
# Out of some 360,000 compounds screened, about 660 (0.18%) were called active. Inconclusive means that the source gave no clear call. Such entries were picked first, then a sample of the others. Calls come from the whole dose curve; as a rule, active = well fitted inhibition curve with a large enough effect; inconclusive = small, poorly fitted or top-dose-only effect; inactive = no such curve, though single readings can be large or run the other way. Potencies of inconclusive entries are left out as doubtful fits.
# Molecular target: Rap guanine nucleotide exchange factor 4 (Homo sapiens) (UniProt Q8WZA2)
# Test: qHTS for Antagonist of cAMP-regulated guanine nucleotide exchange factor 2 (EPAC2): primary screen; note: nearly all actives have a fitted effect of over 45% in size
# Settings: EPAC2 GEF exchange of Rap1B-BODIPY-GDP, fluorescence; activity, negative = inhibition: at 114 µM (top of the series)
# Text: In multi-cellular eukaryotic organisms, the effects of cAMP are transduced by two ubiquitously-expressed intracellular cAMP receptors, the classic protein kinase A/cAMP-dependent protein kinase (PKA/cAPK) and the more recently discovered exchange protein directly activated by cAMP/cAMP-regulated guanine nucleotide exchange factor (EPAC/cAMP-GEF). Both PKA and EPAC are ubiquitously expressed in all tissues, and an increase in intracellular cAMP levels will lead to the activation of both PKA and EPAC. Therefore, careful dissections of the individual role and relative contribution of EPAC and PKA within the overall cAMP signaling in various model systems are critical for further elucidating the mechanism of cAMP signaling. To date no EPAC-specific antagonists and agonist, as well as isoform-specific agonists have been reported, and developing EPAC-specific pharmacological probes to determine the physiological functions that EPAC play in the overall cAMP-mediated signaling remains a major challenge within the research field. Furthermore, identified regulators of EPAC may lead to new mechanism-based therapeutic strategies specifically targeting the EPAC / cAMP-signaling components as EPAC has been implicated to play important roles in major human pathological conditions such as diabetes, heart disease, and cancer.
# This qHTS will be used to screen the Molecular Libraries Small Molecule Repository (MLSMR) as a concentration-titration series using the NCGC unique quantitative screening (qHTS) platform to find inhibitors for EPAC2. In addition, this assay will also be used as a counterscreen for the EPAC1 qHTS. This fluorescent based assay is developed and validated for EPAC2 that measures exchange using EPAC effector Rap1 complex with BODIPY-GDP, a GDP analog with a tethered fluorophores. Inhibitors are identified by monitoring the change in fluorescence signal as the exchanged free BODIPY-GDP has a reduced fluorescence compared to Rap1-bound BODIPY-GDP. Decrease in signal (inhibition) is the desired outcome for the EPAC2 antagonist while no activity in this assay is desired for the EPAC1 antagonist counterscreen.
# NIH Chemical Genomics Center [NCGC]
# NIH Molecular Libraries Probe Centers Network [MLPCN]
# Assay Submitter (PI): Xiaodong Cheng, The University of Texas, Medical Branch
# Briefly, three uL of reagents (100 nM EPAC2, 250 nM RAP1B-BODIPY-GDP, 50 uM GDP) were dispensed into a 1536-well Greiner black solid-bottom medium binding assay plate. Controls and test compounds (23 nL) were transferred to the plate via a Kalypsys pin tool equipped with a 1536-pin array. The plates were centrifuged at 1,000 rpm for 15 seconds followed by 5 minute incubation at room temperature. The assay plates were read at 5 minute intervals for 30 minutes in the ViewLux plate reader using 480nm excitation and 540nm emission filters. The results were normalized to the agonist positive control ATA and DMSO.
# % is set by controls: 0 for no effect and ±100 for the full control effect; potency is the fitted concentration of half-maximal effect; tags give direction and shape of the fitted curve.
# Chain of UniProt Q8WZA2 (Q8WZA2 whole entry, looked up): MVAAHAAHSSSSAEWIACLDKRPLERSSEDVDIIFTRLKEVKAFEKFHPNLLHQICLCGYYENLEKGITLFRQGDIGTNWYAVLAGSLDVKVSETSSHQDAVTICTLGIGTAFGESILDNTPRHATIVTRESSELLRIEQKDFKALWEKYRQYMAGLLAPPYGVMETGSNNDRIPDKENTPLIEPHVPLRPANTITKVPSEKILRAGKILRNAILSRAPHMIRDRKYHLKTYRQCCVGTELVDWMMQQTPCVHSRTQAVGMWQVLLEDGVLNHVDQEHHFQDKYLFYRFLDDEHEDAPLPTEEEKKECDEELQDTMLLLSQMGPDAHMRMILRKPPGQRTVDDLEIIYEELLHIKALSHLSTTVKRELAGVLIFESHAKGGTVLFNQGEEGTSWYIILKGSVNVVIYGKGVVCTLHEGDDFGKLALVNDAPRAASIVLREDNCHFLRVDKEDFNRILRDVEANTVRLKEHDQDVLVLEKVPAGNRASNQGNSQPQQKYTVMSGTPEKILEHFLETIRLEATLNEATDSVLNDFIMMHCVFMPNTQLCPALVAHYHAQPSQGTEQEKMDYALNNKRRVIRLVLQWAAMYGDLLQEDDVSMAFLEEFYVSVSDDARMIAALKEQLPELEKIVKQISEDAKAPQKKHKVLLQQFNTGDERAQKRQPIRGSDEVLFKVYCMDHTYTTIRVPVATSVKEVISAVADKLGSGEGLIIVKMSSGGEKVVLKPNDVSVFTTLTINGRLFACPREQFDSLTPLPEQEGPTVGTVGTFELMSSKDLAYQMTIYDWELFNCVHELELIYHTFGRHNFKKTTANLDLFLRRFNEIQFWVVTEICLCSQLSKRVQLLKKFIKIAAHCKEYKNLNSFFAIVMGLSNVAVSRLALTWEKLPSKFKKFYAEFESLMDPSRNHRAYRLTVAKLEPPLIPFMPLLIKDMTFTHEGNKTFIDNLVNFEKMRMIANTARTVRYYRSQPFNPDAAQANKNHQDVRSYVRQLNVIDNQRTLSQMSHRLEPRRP
SMILES,Potency,"activity, negative = inhibition"
O=P(NCc1ccccc1)(Oc1ccccc1)Oc1ccccc1,"inconclusive [inhibitor, partial curve]",
O=C(COC(=O)c1cccc(O)c1)Nc1ccc(Cl)cc1C(=O)c1ccccc1,"inconclusive [inhibitor, partial curve]",
CCCCCCC1CC(C)(C(=O)CNc2nncs2)OC1=O (stereo not drawn),"inconclusive [inhibitor, partial curve]",
O=P(/C=C1\OCc2ccccc21)(Oc1ccccc1)Oc1ccccc1,,inactive: -23.3%
Cc1ccc(CNS(=O)(=O)c2cc3c(cc2C)N(C)CCO3)cc1,"inconclusive [inhibitor, partial curve]",
Cc1cc2c(cc1C)NP(=S)(c1ccccc1)N2,"inconclusive [inhibitor, partial curve]",
CSCCC(c1nnnn1C1CCCCC1)N1CCC(n2c(=O)[nH]c3ccccc32)CC1 (stereo not drawn),"inconclusive [inhibitor, single point]",
CCOc1ccc(N2C(=O)CC(=O)NC2=O)cc1,,inactive: 8.56%
Cc1cc(C)c(OCC(=O)N2CCN(c3ncc(C(F)(F)F)cc3Cl)CC2)c(C)c1,"inconclusive [inhibitor, partial curve]",
COc1cccc(Cn2c(=O)oc3ccccc32)c1,"inconclusive [inhibitor, partial curve]",
CCOC(=O)c1c(C=O)c2ccccc2n1Cc1ccccc1F,"inconclusive [inhibitor, partial curve]",
COc1ccc(C(=O)c2nc3ccccc3n2C(C)C)cc1OC,"inconclusive [inhibitor, single point]",
Nc1ccc(Br)cc1C(=O)c1ccccc1,"inconclusive [inhibitor, partial curve]",
O=C1NCN(c2ccccc2)C12CCN(C(c1cc3ccccc3o1)c1nnnn1C1CCCCC1)CC2 (stereo not drawn),"inconclusive [inhibitor, full curve]",
O=Cc1cn(Cc2c(F)cccc2Cl)c2ccccc12,"inconclusive [inhibitor, full curve]",
COc1ccc(CN2C(=O)CC(=O)NC2=O)cc1,,inactive: -1.93% [at 57.1 µM]
COc1ccc(CC2c3cc(OC)c(OC)cc3CCN2C)cc1O (stereo not drawn),,inactive: -0.816%
Cc1cc(OCC(=O)N[C@@H](Cc2ccccc2)C(=O)O)c2c3c(c(=O)oc2c1)CCCC3,"inconclusive [inhibitor, single point]",
Cc1cc(=O)oc2cc(OCC(=O)N3CCC(C(=O)O)(c4ccccc4)CC3)ccc12,"inconclusive [inhibitor, full curve]",
CC1(C)c2[nH]c3ccccc3c2C[C@@H]2C(=O)N(Cc3ccccc3F)C(=O)N21,,inactive: 5.35%
COC(=O)C1=C(c2ccc(F)cc2OCc2ccccc2)C[C@@H]2CC[C@H]1N2C(=O)NCc1ccc(C(F)(F)F)cc1,"inconclusive [inhibitor, partial curve]",
COC(=O)C1=C(c2cc3ccccc3s2)C[C@@H]2CC[C@H]1N2C(=O)NCc1ccc(C(F)(F)F)cc1,"inconclusive [inhibitor, single point]",

SMILES,Potency,"activity, negative = inhibition"
CCCCC/C(=N/O)c1c(C)[nH]c2ccccc12,"inconclusive [inhibitor, partial curve]",
Cc1cc(Cl)ccc1OCCCC(=O)NCc1cccs1,,inconclusive: -10.1% [inhibitor]
CC(=O)O[C@H]1[C@H]2O[C@]23[C@@H]2CC[C@]4(O)C[C@@H](O)CC[C@]4(C)C2CC[C@]3(C)[C@H]1c1ccc(=O)oc1 (stereo partly drawn),,inactive: -4.4%
c1ccc(-c2ccc(C(c3ccccc3)n3ccnc3)cc2)cc1 (stereo not drawn),"inconclusive [inhibitor, full curve]",
CCCn1c(C(=O)c2ccccc2OC)nc2ccccc21,"inconclusive [inhibitor, partial curve]",
O=C1C=C(NS(=O)(=O)c2ccccc2)C(=O)c2ccccc21,"inconclusive [inhibitor, partial curve]",
CCOC(=O)[C@]12Cc3ccsc3[C@H]1N(Cc1ccccc1)C(=O)c1ccccc12,"inconclusive [inhibitor, full curve]",
Oc1c(Br)c(Br)c(Br)c(Br)c1Br,active: 20 µM,
CCn1c(O)c(C=Nc2ccc(N3CCOCC3)c(Br)c2)c(=O)n(CC)c1=S,,inactive: -5.31%
CC(C)C/C(=N/O)c1cn(C)c2ccccc12,"inconclusive [inhibitor, partial curve]",
CCOC(=O)c1cc(C)sc1/N=C/C1C(=O)NC(=S)NC1=O,"inconclusive [inhibitor, full curve, poor fit]",
CC(Cc1ccccc1)NCc1ccccc1O (stereo not drawn),,inactive: -4.22%
COC(=O)C1=C(c2ccc(F)cc2OCc2ccccc2)C[C@@H]2CC[C@H]1N2C(=O)N1CCCC1,"inconclusive [inhibitor, partial curve]",
CCCCCc1nc2ccccc2c(=O)n1-c1ccccc1[N+](=O)[O-],"inconclusive [inhibitor, partial curve]",
O=c1c2ccccc2[se]n1-c1ccccc1,,inactive: 7.26%
COc1ccc(-n2nnnc2C(c2cccs2)N2CCC(n3c(=O)[nH]c4ccccc43)CC2)cc1 (stereo not drawn),"inconclusive [inhibitor, single point]",
CC[C@@H]1c2ccccc2[C@@H]2CC[C@H]1N2c1ccccc1,"inconclusive [inhibitor, full curve]",
COc1ccc(-n2c(-c3ccccc3F)nc3ccccc3c2=O)cc1,"inconclusive [inhibitor, full curve, poor fit]",
COC(=O)C1=C(c2ccc3ccccc3c2)C[C@@H]2CC[C@H]1N2C(=O)NC1CCCCC1,"inconclusive [inhibitor, partial curve]",
CNc1ccc2nc3ccccc3[n+](C)c2c1,"inconclusive [inhibitor, partial curve]",
COc1ccc(CN2CCN(C(=O)COc3ccc4ccccc4c3)CC2)c(OC)c1,,inactive: -11.5%
